Laboratory results taken from PubChem BioAssay AID1508642 (National Center for Advancing Translational Sciences (NCATS), 2021).
Hit rate of the full screen: of about 43,000 compounds, about 200 (0.47%) were called active. About 12% were inconclusive and are not listed. The call rests on the fitted dose curve; in most records, active means well fitted cell-killing curve with a large enough effect; inconclusive means small, poorly fitted or top-dose-only effect, or effect the other way; inactive means flat fitted curve, though single readings scatter. This is one part of the list.

Assay: Cell viability qHTS assay in S16 Pmp22-F2sN cells; further: nearly all actives have a fitted effect of over 65% in size
Settings: S16 Pmp22-F2sN Schwann cells (luciferase reporters placed in the Pmp22 gene) viability, CellTiter-Glo, 24 h; series mostly up to 57.5 µM; activity change, negative = cytotoxicity: at the top concentration
Method in brief: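 CellTiter-Glo counter-screen, qHTS, 1536-well. Cells: S16(c9) Pmp22-F2sN, 500-1,000/well in DMEM + 10% FBS. Cpd 23 nL pin transfer, 24 h, 37C/5% CO2. Read: luminescence, CCD imager.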
On the % scale 0 is the no-effect control and ±100 the full control effect.

| SMILES | activity change, negative = cytotoxicity |
| --- | --- |
| Cc1ccc(C)c(CN2C(=O)c3ccccc3S(=O)(=O)c3ccc(C(=O)N4CCN(C)CC4)cc32)c1 | inactive: -0.915% |
| Cc1cc(Nc2cc(Cl)ccc2C)n2nc(Cc3ccccc3)nc2n1 | inactive: 8.25% |
| COc1ccc(-c2nnc(SCC(=O)Oc3cccc(C)c3C)o2)cc1 | inactive: 1.01% |
| COc1cccc(CNC(=O)CCc2nc(-c3ccc(C)cc3)no2)c1 | inactive: -0.808% |
| Cc1cc(OCCn2cc(C(=O)c3ccco3)c3ccccc32)ccc1Cl | inactive: 0.37% |
| COc1ccccc1NC(=O)CSc1oc(-c2ccco2)nc1S(=O)(=O)c1ccc(Br)cc1 | inactive: -16.3% |
| CCN(CC)S(=O)(=O)c1ccc2nc(NC(=O)c3ccc(Br)o3)sc2c1 | inactive: -0.974% |
| O=C(Nc1nc2ccc(Cl)cc2s1)c1ccc(S(=O)(=O)N2CCCC2)cc1 | inactive: -10.4% |
| CCOc1cccc(C2c3[nH]c4ccccc4c3CCN2C(=O)CCc2ccccc2)c1 (configuration not stated) | inactive: 2.63% |
| Cc1cccc(NC(=O)C2CCCN(c3nnc(-n4c(C)ccc4C)s3)C2)c1C (configuration not stated) | inactive: -1.78% |
| O=C(NCc1noc2ccccc12)Nc1ccc(F)cc1F | inactive: -3.53% |
| CCOC(=O)c1nc(Nc2ccccc2C)c2ccccc2n1 | inactive: -16.2% |
| CC(C)c1ccc(NC(=O)CN2C(=O)c3cccc4cccc2c34)cc1 | inactive: -0.776% |
| COc1ccc(C)cc1NC(=O)CN1C(=O)COc2ccc(S(=O)(=O)N3CCCCCC3)cc21 | inactive: -1.28% |
| CCOC(=O)C1CCCN(C(=O)c2ccc3c(c2)N(Cc2cccc(Cl)c2)C(=O)c2ccccc2S3(=O)=O)C1 (configuration not stated) | inactive: 11.7% |
| CCCN(C(=O)Cn1c(=O)oc2cc(Cl)ccc21)c1ccc(C(C)C)cc1 | inactive: 0.231% |
| Cc1ccc(Cl)cc1N1CCN(C(=O)c2cn(C)c3ccc(S(=O)(=O)N4CCC(C)CC4)cc3c2=O)CC1 | inactive: -2.07% |
| CCCOc1ccc(C(=O)N(Cc2cccs2)C2CCS(=O)(=O)C2)cc1 (configuration not stated) | inactive: 2.38% |
| O=C(NCC(c1ccc(Cl)cc1)N1CCCCC1)c1ccccc1 (configuration not stated) | inactive: 3.44% |
| CCNc1nc2c(c(=O)n(C)c(=O)n2C)n1CC(O)COc1ccccc1 (configuration not stated) | inactive: -4.02% |
| COC(=O)c1cc(NC(=O)c2cnc(SC)nc2-c2ccccc2)cc(C(=O)OC)c1 | inactive: 0.82% |
| Cc1cc2c(cc1S(=O)(=O)CCC(=O)Nc1ccc(OC(F)(F)F)cc1)OCC(=O)N2 | inactive: 24.4% |
| Cc1c2cnn(CC(=O)O)c(=O)c2c(C)n1Cc1cccc(Cl)c1 | inactive: 7.91% |
| COc1ccc(NC(=O)Nc2cccc(C)n2)c(OC)c1 | inactive: 5.77% |
| O=C(CC1N=C2c3ccccc3N=C(SCc3ccc(Cl)cc3)N2C1=O)NC1CCCCC1 (configuration not stated) | inactive: -1.09% |
| COc1cc(OC)cc(-c2nc3nc(C)c(CCC(=O)Nc4ccc(C)cc4)c(C)n3n2)c1 | inactive: 24.9% |
| Nc1c(C(=O)Nc2ccccc2Cl)nnn1Cc1cccc(Cl)c1 | inactive: -3.21% |
